Results taken from publication PMC11603075 (Communications Biology, 2024).

Tests used:
KDM4E [1] = molecular target: T1, KDM4E (Homo sapiens, UniProt B2RXH2); test: Specific hydroxylation activity of KDM4E; type: biochemical; conditions: for extent of hydroxylation (in words): KDM4E, relative to H2a(1–20)
T1 construct: KDM4E1–337; made in house; host or cells: E. coli
T1 sequence (B2RXH2 1-337): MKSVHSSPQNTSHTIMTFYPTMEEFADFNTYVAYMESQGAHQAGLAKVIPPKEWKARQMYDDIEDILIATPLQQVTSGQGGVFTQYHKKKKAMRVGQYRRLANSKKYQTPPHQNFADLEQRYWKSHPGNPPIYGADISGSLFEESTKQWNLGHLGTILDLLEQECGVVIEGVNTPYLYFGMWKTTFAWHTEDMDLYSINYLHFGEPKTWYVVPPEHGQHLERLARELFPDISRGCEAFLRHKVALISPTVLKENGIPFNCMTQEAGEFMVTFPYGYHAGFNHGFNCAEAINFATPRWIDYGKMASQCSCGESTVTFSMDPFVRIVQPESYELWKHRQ
Method: (§1) Fig. 3 KDM4E-catalysed hydroxylation occurs at Arg-20 on histone H2a peptide. a LC–MS/MS analysis of H2a(1–20) after KDM4E treatment. Two potential hydroxylation sites, R17 and R20, were identified, with the latter more likely (Supplementary Fig. 9). b Peptide variant studies support Arg-20 hydroxylation; specific activities: H2a(1–20), 0.65 nmol min^−1 mg^−1 SD: 0.073; H2a(1–20) with a C-terminal carboxylic acid (indicated with an -OH), no activity; H2a(1–20)R20A, no activity; H2a(1–20)R20K*, no activity; H2a(1–20)R20Kme3*, 0.44 nmol min^−1 mg^−1 SD: 0.04; H2a(1–20)R3me2a*, 0.51 nmol min^−1 mg^−1 SD: 0.05; H2a(1–20)R3A, 0.37 nmol min^−1 mg^−1 SD: 0.002; H2a(1–21)*, 0.65 nmol min^−1 mg^−1 SD 0.02; H2a(1–25, 0.35 nmol min^−1 mg^−1 SD: 0.044; and H2a(10–29), 0.02 nmol min^−1 mg^−1 SD: 0.013. Measurements employed MALDI–TOF MS except when labelled with*, which employed LC–MS (Supplementary Fig. 10 for representative MS data). n = 3 independent assays. c KDM, RDM and hydroxylation (+16 Da) activities of KDM4E are sequence and context dependent. Histone peptides (H2a, H3, H4) and variants (wild type residue in red, replaced with either K, Kme3, R or Rme2a) were incubated with KDM4E and analysed on MALDI–TOF MS. KDM, RDM and hydroxylation (+16 Da) were detected in some but not all peptides (Supplementary Fig. 10 for representative MS data). (−) No mass changes observed. n = 3 independent assays. See Supplementary Table 6 for conditions. TEXT PRINTED IN THE PICTURE: (c) H2a: K/R replacement K: -; K/R replacement Kme3: KDM/ROH; K/R replacement R: ROH; K/R replacement Rme2a: KDM/ROH | (c) H3: K/R replacement K: -; K/R replacement Kme3: KDM; K/R replacement R: -; K/R replacement Rme2a: RDM | (c) H4: K/R replacement K: -; K/R replacement Kme3: -; K/R replacement R: -; K/R replacement Rme2a: RDM DOUBTS OF THE COPYIST ABOUT THIS PICTURE: Panel c: the table cells are qualitative activity classes (KDM, RDM, ROH, -) for peptide variants, not numbers; it is uncertain whether they count as results. / Panel b: the bar chart prints no values beside the bars, so nothing was taken from it.
(§2) MS-based screening assays with peptides and calf thymus histones were as reported; see Supplementary Table 6 for conditions. Time course assays were based on reported procedures. In brief, equal volumes of the enzyme and substrate solutions were combined to initiate the reaction; 10 µL of 2% (v/v) formic acid (HCOOH) in ddH2O or 100% methanol was added to 10 µL of the reaction mixture to quench reactions at different time points. Unless otherwise stated, time course assays were carried out in triplicate. In some cases, LC–MS was used instead of MALDI-TOF MS to avoid a MALDI matrix induced artefact with the hydroxylated product (Supplementary Fig. 16).
Data collected from time course assay(s) were used to plot the % conversion vs time (min) using GraphPad Prism5 version 5.04; the resultant slopes were used to fit a line with linear regression to the first-order region of the reaction. The resultant gradient was then converted from % product formation min^−1 to amount of peptide converted (demethylation and / or hydroxylation) in µM.
Supplementary Figure 17 Comparison of specific hydroxylation activities of KD M4E with H2a(1–20) when anal ysed by MALDI-TO F MS or LC–MS. Comparison of specific activities for KDM4E catalysed hydroxylation of H2a(1–20) when analysed with MALDI-TOF MS or LC–MS ([…] SD: 0.073 and 0.65 nmol·min−1·mg− 1 SD: 0.01 respectively). n = 3 (independent assays). See Supplementary Table 6 for assay […]
(also on this page, place not known: KDM4E H2a(1 –20) analysed MALDI -TOF LC –MS nmol·min −1·mg−1 nmol·min−1·mg−1 0.8specific activity (nmol·min-1·mg-1)) […]
(§3) [ E nz ym e] [Peptide] [2OG] [Ascorbate] [(NH4)2F e(S O4)2] [TCEP] Buffer pH7.5 Enzyme Cognate substrate (mM) (mM) (mM) (mM) (mM) (mM) [HE PE S]
Supplementary Table 6 Summary of MS assay conditions for substrate screening. These conditions […]

KDM4E [2] = molecular target: T1, KDM4E; test: KDM, RDM and hydroxylation (+16 Da) activities of KDM4E with histone peptide variants by MS; type: biochemical; conditions: MALDI–TOF or LC–MS, n = 3
Method: as §1, §2
Supplementary Figure 10 KDM, RDM and hydroxylation (+16 Da) activities of KDM4E are sequence and context dependent. Representative MALDI–TOF or LC –MS spectra for incubation of KDM4E with: (a) H 2 a( 1–20) w it h a C -terminal carboxylic acid (indicated by -OH ) , (b) H2 a( 1–20 )R2 0A, and (c) H2 a( 1–20 )R2 0K […]
and (p) H4 (1 –21)R3Kme3 showing no mass shift s; Charge st at e of labelled ions: [M + H] 5+ for (a), (c–e), and (g), and [MH] + for (b), (f) a nd (h–p). *L ow le v e l MA L D I–TOF MS peaks indicating ~10% product formation. n = 3 (independent assays). Y-axis: relative abundance (%). See Supplem ent ary T able 6 for assay condit ions.
See Figure 3b for specific activities of H2a peptide panel and Figure 3c for summary of K/R subst it ut ions of wild type H2a, H3 and H4 sequences. The –14 Da peak indicated in (f) a n d (h) is due to a MALDI–T O F MS derived modification – se e Supplementary Figure 16.
as §3
Supplementary Table 6 Summary of MS assay conditions for substrate screening. These conditions enabled efficient turnover of established substrates. […]

KDM4D = test: LC–MS conversion (RDM and hydroxylation), KDM4D; type: biochemical, human; conditions: for % +16 Da / % -14 Da: 10 µM peptide
Method: as §2
Supplementary Figure 6 Conversion of H2a peptides with increased concentrations of KDM4D.
Comparison of combined RDM and apparent hydroxylation activities of KDM4E and KDM4D with H2a(1– 20) and H2a(1–20 )R3 me2a. (a) Representative LC–MS spectra showing (120-minute incubation) (from top to bottom) KDM4E at 2 µM, KDM4D at 2 µM, and KDM4D at 10 µM with (from left to right) H2 a(1 –2 0 ) a n d […]
shift (hydroxylation). Charge state of labelled ions: [M + H]5+. *Low-level peaks indicating ~5% – 14 Da/+16 Da. (b) Bar graph comparing % product formation by KDM4E and KDM4D of H2a(1–20) and H2a(1– 20)R3me2a; n = 3 (independent assays). Se e Supplementary Table 6 for assay conditions.
(1 picture or pasted object on this page, not shown here)
Supplementary Figure 13 Reactivity of KDM4D with the H2a peptide panel. Representative LC–MS (12 0-minute incubation) of KDM4D at 10 µM with: (a) H2 a(1 –20)R20me2a, (b) H 2 a( 1–20)R20 me2 s, (c) H 2 a( 1– […]
was observed. Charge state of labelled ions: [M + H]5+. Y-axis: relative abundance (%). (e) Bar graph and (f) […]
21)K9me3. n = 2/3 (independent assays). Conditions: 10 µM peptide, 200 µM 2OG, 100 µM sodium L-ascorbate, 10 µM (NH4)2F e ( SO 4)2, and 50 mM HEPES (pH 7.5). […]
as §3
Supplementary Table 6 Summary of MS assay conditions for substrate screening. These conditions enabled efficient turnover of established substrates. Reactions were carried out at 37 °C unless otherwise st ated. […]

[3] = Figure 3b, MALDI–TOF MS, replicate 1
[4] = Figure 3b, MALDI–TOF MS, replicate 2
[5] = Figure 3b, MALDI–TOF MS, replicate 3
[6] = MALDI–TOF MS, mean of n = 3, SD: H2a(1–20) 0.073, R3A 0.002, H2a(1–25) 0.044, H2a(10–29) 0.013
[7] = KDM4D 10 µM, 120 min, replicate 1
[8] = KDM4D 10 µM, 120 min, replicate 2
[9] = KDM4D 10 µM, 120 min, replicate 3
[10] = Figure 3b, LC–MS (*), replicate 1
[11] = Figure 3b, LC–MS (*), replicate 2
[12] = Figure 3b, LC–MS (*), replicate 3
[13] = LC–MS (marked *), mean of n = 3, SD: R20Kme3 0.04, R3me2a 0.05, H2a(1–21) 0.02

Question: What does the source list for “Ac - SGR GKQ GGKAR AKAKT R SSA [H2a(1–20)R20A]”?
Answer: specific activity (hydroxylation) (KDM4E [1]; [3]): 0 nmol/min/mg; specific activity (hydroxylation) (KDM4E [1]; [4]): 0 nmol/min/mg; specific activity (hydroxylation) (KDM4E [1]; [5]): 0 nmol/min/mg; specific activity (hydroxylation) (KDM4E [1]; [6]): no activity; +16 Da mass shift (hydroxylation) (KDM4E [2]): lack of a +16 Da mass shift; mass shift (KDM4E [2]): no mass shift

Question: For “Ac -SGK[me3]GKGGKGL GKGGAKR HR KV [H4(1–21)R3Kme3, reference compound]”, which mass shift (KDM4E [2]) is on record?
Answer: Its mass shift is “no mass shift”.

Question: Which “−14 Da mass shift (demethylation)” value (KDM4E [2]) does the source give for “Ac -SGR [me2a ]GKGGKGL GKGGAKR HR KV [H4(1–21)R3me2a, reference compound]” here?
Answer: Its value is 14 Da mass shift.

Question: “Ac - SGR GKQ GGKAR AKAKT R SSK[ me 3] [H2a(1–20)R20Kme3]” was tested. Which activity (KDM4D; KDM4D) did it give?
Answer: The activity was “No activity was observed”.

Question: And the “% +16 Da” value (KDM4D; [7])?
Answer: Its value is 0%.

Question: What about the “% -14 Da” value (KDM4D; [7]) of the same substance?
Answer: Its value is 0%.

Question: And the “% +16 Da” value (KDM4D; [8])?
Answer: Its value is 0%.

Question: And the “% -14 Da” value (KDM4D; [8])?
Answer: Its value is 0%.

Question: And the “% +16 Da” value (KDM4D; [9])?
Answer: Its value is 0%.

Question: And the “% -14 Da” value (KDM4D; [9])?
Answer: Its value is 0%.

Question: What about the “−14 Da mass shift” value (KDM4D; KDM4D 10 µM, 120 min, LC–MS) of the same substance?
Answer: Its value is “no mass shift”.

Question: And the “specific activity (hydroxylation)” value (KDM4E [1]; [10])?
Answer: Its value is 0.4536 nmol/min/mg.

Question: And the “specific activity (hydroxylation)” value (KDM4E [1]; [11])?
Answer: Its value is 0.3792 nmol/min/mg.

Question: What about the “specific activity (hydroxylation)” value (KDM4E [1]; [12]) of the same substance?
Answer: The value was 0.4941 nmol/min/mg.

Question: What about the “specific activity (hydroxylation)” value (KDM4E [1]; [13]) of the same substance?
Answer: The value was 0.44 nmol/min/mg.

Question: How did the “specific activity (hydroxylation)” value (KDM4E [1]; [10]) turn out when “Ac - SGR GKQ GGKAR AKAKT R SSK [H2a(1–20)R20K]” was run?
Answer: Its value is 0 nmol/min/mg.

Question: And the “specific activity (hydroxylation)” value (KDM4E [1]; [11])?
Answer: Its value is 0 nmol/min/mg.

Question: What about the “specific activity (hydroxylation)” value (KDM4E [1]; [12]) of the same substance?
Answer: The value was 0 nmol/min/mg.

Question: And the “extent of hydroxylation (in words)” value (KDM4E [1])?
Answer: Its value is “No evidence for hydroxylation was observed”.

Question: What about the “specific activity (hydroxylation)” value (KDM4E [1]; [13]) of the same substance?
Answer: Its value is “no activity”.

Question: And the mass shift (KDM4E [2])?
Answer: Its mass shift is “no mass shift”.

Question: With “Ac -SGKGKGGKGL GKGGAKR HR KV [H4(1–21)R3K, reference compound]” as the substance, how does the mass shift (KDM4E [2]) read?
Answer: Its mass shift is “no mass shift”.

Question: Which results are given for “Ac - SGAGKQ GGKAR AKAKT R SSR [H2a(1–20)R3A]”?
Answer: specific activity (hydroxylation) (KDM4E [1]; [3]): 0.3692 nmol/min/mg; specific activity (hydroxylation) (KDM4E [1]; [4]): 0.3698 nmol/min/mg; specific activity (hydroxylation) (KDM4E [1]; [5]): 0.3735 nmol/min/mg; extent of hydroxylation (in words) (KDM4E [1]): reduced activity relative to H2a(1–20); specific activity (hydroxylation) (KDM4E [1]; [6]): 0.37 nmol/min/mg; +16 Da mass shift (hydroxylation) (KDM4E [2]): +16 Da mass shift
